Some of the results follow. Single values are uncertain, as repeats are few or missing.
Experiments:
Test in all cases: cell count relative to DMSO control; melanoma cells; higher = more viable cells
Conditions in all cases: library dose: standard library concentration; 72 h
SkMel28 = tested on: SkMel28
SkMel2 = tested on: SkMel2
SkMel30 = tested on: SkMel30
SkMel5 = tested on: SkMel5
UACC257 = tested on: UACC257
UACC62 = tested on: UACC62
WM115 = tested on: WM115
WM1716 = tested on: WM1716
WM1745 = tested on: WM1745
WM3526 = tested on: WM3526
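Note: cells treated in 1,536-well plates, then fixed and DAPI-stained, with nuclei counted from automated high-throughput microscope images.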

Row | SMILES | cell count (SkMel28) [%] | cell count (SkMel2) [%] | cell count (SkMel30) [%] | cell count (SkMel5) [%] | cell count (UACC257) [%] | cell count (UACC62) [%] | cell count (WM115) [%] | cell count (WM1716) [%] | cell count (WM1745) [%] | cell count (WM3526) [%]
1 | C=CCNC1=C2C[C@@H](C)C[C@H](OC)[C@H](O)[C@@H](C)/C=C(\C)[C@H](OC(N)=O)[C@@H](OC)/C=C\C=C(/C)C(=O)NC(=CC1=O)C2=O [Tanespimycin] + CC1(C)NC(=O)N(c2ccc([N+](=O)[O-])c(C(F)(F)F)c2)C1=O [nilutamide] (first compound 0.01 µM, partner dose 5 µM) | 65 | 98.1 | 97.6 | 82.8 | 93.1 | 63.6 | 27.9 | 82.1 | 61.4 | 73.7
2 | C[C@@H](Oc1cc(-c2cnn(C3CCNCC3)c2)cnc1N)c1c(Cl)ccc(F)c1Cl [Crizotinib] + N#Cc1c(O)c2c(-c3ccc(-c4ccccc4O)cc3)csc2[nH]c1=O [A769662] (first compound 1 µM, partner dose 10 µM) | 63.2 | 87.7 | 116 | 73.6 | 92.9 | 78.1 | 74.7 | 99.8 |  | 90.1
3 | C=CCNC1=C2C[C@@H](C)C[C@H](OC)[C@H](O)[C@@H](C)/C=C(\C)[C@H](OC(N)=O)[C@@H](OC)/C=C\C=C(/C)C(=O)NC(=CC1=O)C2=O [Tanespimycin] + O=C1NC(=O)/C(=C/c2ccc(-c3ccc(F)cc3O)o2)S1 [AS252424] (first compound 0.01 µM, partner dose 5 µM) | 54.3 | 83.4 | 118 | 61.9 | 98.4 | 62.2 | 23.5 | 94.7 |  | 69.9
4 | C[C@@H](Oc1cc(-c2cnn(C3CCNCC3)c2)cnc1N)c1c(Cl)ccc(F)c1Cl [Crizotinib] + COc1ccc(COc2ccc(Cc3cnc(N)nc3N)cc2OC)cc1 [GW2580] (first compound 1 µM, partner dose 5 µM) | 52.6 | 78.9 | 90 | 47.4 | 69.8 | 83.5 | 48.1 | 75.2 |  | 63.6
5 | CN1CCN(c2ccc3nc(-c4c(N)c5c(F)cccc5[nH]c4=O)[nH]c3c2)CC1 [Dovitinib] + CCCCCCCCCCCC1=C(O)C(=O)C=C(O)C1=O [Embelin] (first compound 0.5 µM, partner dose 6 µM) | 55.7 | 48.9 | 62 | 64.4 | 64.3 | 48.8 | 62.1 | 68.7 |  | 73.1
6 | CN1CCN(c2ccc3nc(-c4c(N)c5c(F)cccc5[nH]c4=O)[nH]c3c2)CC1 [Dovitinib] + CCN(CC)CCCCNc1ncc2cc(-c3cc(OC)cc(OC)c3)c(NC(=O)NC(C)(C)C)nc2n1 [PD173074] (first compound 0.5 µM, partner dose 0.5 µM) | 68.9 | 78.9 | 73.8 | 85.9 | 95.7 | 88.9 | 62 | 106 |  | 85.1
7 | C[C@@H](Oc1cc(-c2cnn(C3CCNCC3)c2)cnc1N)c1c(Cl)ccc(F)c1Cl [Crizotinib] + CCN(CC)CCCCNc1ncc2cc(-c3cc(OC)cc(OC)c3)c(NC(=O)NC(C)(C)C)nc2n1 [PD173074] (first compound 1 µM, partner dose 0.5 µM) | 63 | 79.2 | 90.9 | 72.1 | 87.2 | 84.2 | 46.5 | 86.8 |  | 75.5
8 | C=CCNC1=C2C[C@@H](C)C[C@H](OC)[C@H](O)[C@@H](C)/C=C(\C)[C@H](OC(N)=O)[C@@H](OC)/C=C\C=C(/C)C(=O)NC(=CC1=O)C2=O [Tanespimycin] + COC(=O)c1sccc1S(=O)(=O)Nc1ccc(Nc2ccccc2)cc1OC [GSK0660] (first compound 0.01 µM, partner dose 5 µM) | 78.7 | 92.5 | 115 | 122 | 92.7 | 67 | 35.1 | 119 |  | 105
9 | C=CCNC1=C2C[C@@H](C)C[C@H](OC)[C@H](O)[C@@H](C)/C=C(\C)[C@H](OC(N)=O)[C@@H](OC)/C=C\C=C(/C)C(=O)NC(=CC1=O)C2=O [Tanespimycin] + Oc1cc(-c2nc(-c3ccccc3)[nH]c2-c2ccncc2)ccc1Cl [L779450] (first compound 0.01 µM, partner dose 1 µM) | 41.5 | 32.8 | 94.9 | 64.1 | 80.3 | 56.7 | 16 | 69.2 |  | 61
10 | CN1CCN(c2ccc3nc(-c4c(N)c5c(F)cccc5[nH]c4=O)[nH]c3c2)CC1 [Dovitinib] + Oc1cc(-c2nc(-c3ccccc3)[nH]c2-c2ccncc2)ccc1Cl [L779450] (first compound 0.5 µM, partner dose 1 µM) | 35.1 | 15.7 | 70.5 | 46.5 | 74.4 | 47.8 | 40.9 | 56.2 |  | 45.9
11 | CS(=O)(=O)CCNCc1ccc(-c2ccc3ncnc(Nc4ccc(OCc5cccc(F)c5)c(Cl)c4)c3c2)o1 [lapatinib] + O=S(=O)(c1ccccc1)N(CC(F)(F)F)c1ccc(C(O)(C(F)(F)F)C(F)(F)F)cc1 [T0901317] (first compound 4 µM, partner dose 7 µM) | 58.1 | 77.1 | 60.8 | 36.3 | 67.6 | 56.1 | 81.2 | 85.4 |  | 86.9
12 | CS(=O)(=O)CCNCc1ccc(-c2ccc3ncnc(Nc4ccc(OCc5cccc(F)c5)c(Cl)c4)c3c2)o1 [lapatinib] + CC(C)CCN1c2nc(Nc3cc(F)c(O)c(F)c3)ncc2N(C)C(=O)C1C [BID1870] (first compound 4 µM, partner dose 1 µM) | 51.5 | 67.5 | 50.8 | 43.3 | 79.9 | 60.1 | 104 | 84 |  | 67.3
13 | CNC(=O)c1cc(Oc2ccc(NC(=O)Nc3ccc(Cl)c(C(F)(F)F)c3)cc2)ccn1 [sorafenib] + Oc1nc(-c2ccc(C(F)(F)F)cc2)nc2c1CSCC2 [XAV939] (first compound 2 µM, partner dose 10 µM) | 105 | 111 | 85.1 | 80.5 | 95.2 | 87.6 | 91.5 | 54.8 |  | 104
14 | C[C@@H](Oc1cc(-c2cnn(C3CCNCC3)c2)cnc1N)c1c(Cl)ccc(F)c1Cl [Crizotinib] + COc1cc(Nc2ncc(F)c(Nc3ccc4c(n3)NC(=O)C(C)(C)O4)n2)cc(OC)c1OC [Tamatinib] (first compound 1 µM, partner dose 2 µM) | 51.6 |  | 100 | 48.9 | 68.6 | 75.3 | 53.4 | 56 | 31.4 | 64.9
15 | CN1CCN(c2ccc3nc(-c4c(N)c5c(F)cccc5[nH]c4=O)[nH]c3c2)CC1 [Dovitinib] + Cn1cc(/C=C2\C(=O)Nc3cccnc32)c2ccccc21 [GW441756] (first compound 0.5 µM, partner dose 2 µM) | 49 | 72.2 | 95.5 | 47.2 | 102 | 64.9 | 66.9 | 88.8 |  | 67.4
16 | CNC(=O)c1cc(Oc2ccc(NC(=O)Nc3ccc(Cl)c(C(F)(F)F)c3)cc2)ccn1 [sorafenib] + Cn1cc(/C=C2\C(=O)Nc3cccnc32)c2ccccc21 [GW441756] (first compound 2 µM, partner dose 2 µM) | 106 | 91 | 105 | 65.9 | 78.7 | 107 | 122 | 119 |  | 93.6
17 | CNC(=O)c1cc(Oc2ccc(NC(=O)Nc3ccc(Cl)c(C(F)(F)F)c3)cc2)ccn1 [sorafenib] + c1cc(-c2cnn3cc(-c4ccc(OCCN5CCCCC5)cc4)cnc23)ccn1 [Dorsomorphin] (first compound 2 µM, partner dose 2 µM) | 83.4 | 80.2 | 82.4 | 59.2 | 72 | 72.8 | 65.6 | 71 |  | 75.2
18 | C[C@@H](Oc1cc(-c2cnn(C3CCNCC3)c2)cnc1N)c1c(Cl)ccc(F)c1Cl [Crizotinib] + O=C1NC(=O)/C(=C/c2ccc(-c3ccc(F)cc3O)o2)S1 [AS252424] (first compound 1 µM, partner dose 5 µM) | 68 | 66.9 | 87.6 | 70.5 | 89.2 | 117 | 59.3 | 82.7 |  | 75.3

Reference: the supplement of paper PMC4604168 (melanoma cell lines)
